Here are results for 22 molecules from paper PMC12136788.

Some of the results follow.

B1: ENSG00000198589:be:win_3301|CDS|ENSG00000198589|bound_else_gene|NA|bound_elsewhere_windowed (ssRNA)
RNA: GGGAGUUCUACAGUCCGACGAUCAUAGUAGAGGAAGAGGAAGAUGAUGAUUAUGUGGAACUGAAAGUAGAAGGCAGUCCUACUGAGGAAGCUAAUCUACCCACAGAGCUCCAAGAUAACAGUUUGUCUCCAGCUGCAUCUGAACAACAGAGGAUUGAGCAUCA
B2: chr16:82148161:82148730:-|three_prime_utr|ENSG00000135698|control|control|control (ssRNA)
RNA: GGGAGUUCUACAGUCCGACGAUCCCAGGGGUGCUUGGUGGAAGUCAGCAGGGCAUCUGGAGCUCAUCCCAAUGGUGUCUCUAUAGUUAUUAAUACUGUAACGUUUACUUGUAAAGAGAUUAUCAUUUUAGAAACAUGCUGUUUCAACAGAGGAUUGAGCAUCA
B3: chr1:149903635:149903737:-|3pUTR|ENSG00000159164|unk|FALSE|unique (ssRNA)
RNA: GGGAGUUCUACAGUCCGACGAUCGGCUGCUUUCUUUGGUGCCCUCCCCUCACCCCACUGUAGCUGUGACGUGUUGUAGUUUUUAGAUGUUUGUAAAAUGUUUAAAAAAAUGUUAAAAGGAAAAAAGUGAAAAUAACAAAAAAGCAACAGAGGAUUGAGCAUCA
B4: chr6:132588675:132589686:-|CDS|ENSG00000135569|control|control|control (ssRNA)
RNA: GGGAGUUCUACAGUCCGACGAUCUGCCAAGACCCUGGGCAUUGCUGUGGGCAUAUACCUCUUGUGCUGGCUGCCCUUCACCAUAGACACGAUGGUCGACAGCCUCCUUCACUUUAUCACACCCCCACUGGUCUUUGACAUCUUCAACAGAGGAUUGAGCAUCA
B5: chr6:136278143:136278257:-|CDS|ENSG00000029363|unk|total|mutant (ssRNA)
RNA: GGGAGUUCUACAGUCCGACGAUCACAUCCGGUGAUAUUUGGCCUGGCCUUUCAGCUUAUGAUAACCGUCCCCGAUCACCCCACCGUCCUUCACCUAUUGCUACACCACCCCGUCAGAGUUCAUCUUGCUCUGAUGCUCCCAUGCAACAGAGGAUUGAGCAUCA
B6: chr5:38481646:38481747:-|CDS|ENSG00000113594|unk|FALSE|unique (ssRNA)
RNA: GGGAGUUCUACAGUCCGACGAUCCAGACCUCAGGCCAAUGUAAAUACAUGGAAUUUAGUGUCUCCAGACUCUCCUAGAUCCAUAGACAGCAACAGUGAGAUUGUCUCAUUUGGAAGUCCAUGCUCCAUUAAUUCCCGACAAUUCAACAGAGGAUUGAGCAUCA
B7: chrX:17800420:17802010:-|CDS|ENSG00000131831|control|control|control (ssRNA)
RNA: GGGAGUUCUACAGUCCGACGAUCCUUCAGGGCUAUGACAUCAACAGCCAAGGGGAAGAGUCCAUGGGAAAUGCAGAGCCCCUUAGGAAACCCAUCAAAAACCGGAGCAUAAAGUUAAAGAAAGUGAACUCCCAGGAAAUACACCAACAGAGGAUUGAGCAUCA
B8: chr17:18931026:18931127:+|3pUTR|ENSG00000141127|msi1|FALSE|unique (ssRNA)
RNA: GGGAGUUCUACAGUCCGACGAUCGAUACCUGCAAUUGAAAAGCCGAAAAGAUUAUACUGUCAAGUCCAGUAAAUGACAUUUUUAGAGAUGCUUUUGUAGACAAGCAUAUGGAAUAUGUGAUUGUAUUUAUUUUCUGCAACUAACAACAGAGGAUUGAGCAUCA
B9: chr1:108700024:108700125:+|3pUTR|ENSG00000134186|msi1|total|mutant (ssRNA)
RNA: GGGAGUUCUACAGUCCGACGAUCCACAUUGAAUCCUAUAAAUGAUUAAAUCUGCUUUUUUCCCCCACGUUGAGAUUGUGCAGCCGUUCGCACUCCUCAAGCUCUCCCUGCCGGCUGCAUUUUCAUUUCCUCUUUCGUGCCGGGCAACAGAGGAUUGAGCAUCA
B10: ENSG00000198589:be:win_7301|CDS|ENSG00000198589|bound_else_gene|NA|bound_elsewhere_windowed (ssRNA)
RNA: GGGAGUUCUACAGUCCGACGAUCAUUACUUGACCUAUGAAGGAGCUGUCAAUCUGAAUUCAAUAACUGAUCCUGUGUUGAGAGAGGCUGUUGAAGCUCAAAUCCGAAGUUUUGGACAGACUCCUUCUCAACUACUCAUAGAGCCAACAGAGGAUUGAGCAUCA
B11: chr6:144852070:144852171:+|3pUTR|ENSG00000152818|unk|total|mutant (ssRNA)
RNA: GGGAGUUCUACAGUCCGACGAUCAAGUCCUUAACCGUUCUUGAAACUCCCCGUUGUUUUCUUGUUGAAAGCAGACACACAUUCCGUGCACGGCUUAUUUUACCUUUCGGGUGAAAGAUCAGAUGUUUUUAUACCCUUCACUUGCAACAGAGGAUUGAGCAUCA
B12: ENSG00000107863:be:win_4801|CDS|ENSG00000107863|bound_else_gene|NA|bound_elsewhere_windowed (ssRNA)
RNA: GGGAGUUCUACAGUCCGACGAUCUCCAGUCGACUGAGCCCUGAGGUGCAAUCCGUGGCAGAGAGCAAGGGGGACGAGGCAGAUGACGAGAGAAGCGAACUCAUCAGUGAAGGGCGGCCUGUGGAAACCGACAGCGAGAGCGAGCAACAGAGGAUUGAGCAUCA
B13: ENSG00000009954:stop:overlap|stop_codon|ENSG00000009954|stop_codon|NA|stop_codon (ssRNA)
RNA: GGGAGUUCUACAGUCCGACGAUCAUGAAGGGGACAGUGAGCCAGAGGCCGUUGGACAGUCCAGGGGACGAAGACAGAAGAAGUAGAGAGGCAGGGCCGUGGUGACAGUAUCAGUGAGUGCCAUACAGAAUUGUGUAUUCACCACAACAGAGGAUUGAGCAUCA
B14: chr10:88913158:88913259:+|CDS|ENSG00000138134|unk|FALSE|unique (ssRNA)
RNA: GGGAGUUCUACAGUCCGACGAUCGCAUCAGAGAUUGAUAGAGGCAGAAAGGAAGCGGAUUGCUCAGAUGCGCCAGCAGCAGCUAGAAUCGGAGCAGUUUCUGUUUUUCGAAGAUCAACUCAAGAAGCAAGAGUUAGCCCGAGGCAACAGAGGAUUGAGCAUCA
B15: ENSG00000184117:stop:overlap|stop_codon|ENSG00000184117|stop_codon|NA|stop_codon (ssRNA)
RNA: GGGAGUUCUACAGUCCGACGAUCUGGGCAACUGGAACACGUGGUAUGGGGAGCAGGACCAGGCAGGUCAUUCCUGGUUUUGGUAGAUUUCUAUCCAUACAGUACUUUUGCCAUUUCCUUUGGGAAAAAGACCUUUAAACCAUACAACAGAGGAUUGAGCAUCA
B16: chr15:34980028:34980129:-|3pUTR|ENSG00000198146|msi1|FALSE|unique (ssRNA)
RNA: GGGAGUUCUACAGUCCGACGAUCGGUUCUGUUAUUUAAGCCUGUUCUAAGUUUGAUCAAAUGGCAAUGACUAGGUCUAGUUUUAGUUUUUAUUUUUGCAGGAGUCUAUUGCUAAAGAAUUUUAUUUUGAUGCUUGUUAAAUUUCAACAGAGGAUUGAGCAUCA
B17: chr5:80437677:80437780:+|CDS|ENSG00000039319|unk|FALSE|unique (ssRNA)
RNA: GGGAGUUCUACAGUCCGACGAUCUUCCUUUCAGGAAGAUAAGACUGUUAUAAAACAAUCUGCACAAGAAGACUCAAAAAGUUUAGACCUUAAGGAUAAUGAUGUAAUCCAAGAUUCCUCUUCAGCUUUACAUGUUUCCAGUAACAACAGAGGAUUGAGCAUCA
B18: chr2:112781603:112781826:-|CDS|ENSG00000115008|control|control|control (ssRNA)
RNA: GGGAGUUCUACAGUCCGACGAUCGAGUAUCUCUGAAACCUCUAAAACAUCCAAGCUUACCUUCAAGGAGAGCAUGGUGGUAGUAGCAACCAACGGGAAGGUUCUGAAGAAGAGACGGUUGAGUUUAAGCCAAUCCAUCACUGACAACAGAGGAUUGAGCAUCA
B19: chr1:153933785:153933886:-|CDS|ENSG00000198837|msi1|FALSE|unique (ssRNA)
RNA: GGGAGUUCUACAGUCCGACGAUCGGGAAGUUGGUGCAGAGGCUGGGGUCCAUCUUCCCUCAUUCUUUUCUGUGCUGCAGUGAUAGAGGCCUUGGGGGUCCUGGAACCCCGGGGAUCACCUGUGCCCUGGCACGAUGGAAGUCUCAACAGAGGAUUGAGCAUCA
B20: chr6:89794666:89794767:-|CDS|ENSG00000112159|unk|FALSE|unique (ssRNA)
RNA: GGGAGUUCUACAGUCCGACGAUCCCAGUCUUUCAAAGACUUUUCCUAGAGAGUUCAGAUGCUAAUCCAGUACGCUAUGGACGUAGGAGGAUGAAGCUCCGGGACCUAAUGGAAGCAGCCUUCAAGUUUCUGCAGCAGGAGCAGCAACAGAGGAUUGAGCAUCA
B21: ENSG00000177108:stop:overlap|stop_codon|ENSG00000177108|stop_codon|NA|stop_codon (ssRNA)
RNA: GGGAGUUCUACAGUCCGACGAUCUGGGCCUGCUGGUCCCCAUGUUCAAUGUCGGAAGUGAGAGCUCCAAGCAGCAGGAUAAGUAGUAGACACUCCCGUCAUUUAUCUCUCUGUCUCUGUCUUGACUCCUCCUGAGCAUAAAACCAACAGAGGAUUGAGCAUCA
B22: chr17:4948375:4948459:-|5pUTR_CDS|ENSG00000108518|msi1_unk|FALSE|overlapping (ssRNA)
RNA: GGGAGUUCUACAGUCCGACGAUCAGCCGAGGCAGCUCGAGCCCAGUCCGCGGCCCCAGCAGCAGCGCCGAGAGCAGCCCCAGUAGCAGCGCCAUGGCCGGGUGGAACGCCUACAUCGACAACCUCAUGGCGGACGGGACCUGUCAACAGAGGAUUGAGCAUCA

For the assay, the target named is MSI1 full-length (mouse, UniProt Q61474 1-362). Briefly: nsRBNS (natural sequence RNA bind-n-seq); RBNS binding buffer (assumed for nsRBNS): 25 mM Tris pH 7.5, 150 mM KCl, 3 mM MgCl2, 0.01% Triton X-100, 500 ug/ml BSA, 20 U/ml SUPERase-In, 4 C; UNK is unkempt and MSI1 is Musashi-1; names of the RNAs are library labels; protein concentration not given here; high values mean tight binding.
UniProt Q61474, sequence (Q61474 whole entry): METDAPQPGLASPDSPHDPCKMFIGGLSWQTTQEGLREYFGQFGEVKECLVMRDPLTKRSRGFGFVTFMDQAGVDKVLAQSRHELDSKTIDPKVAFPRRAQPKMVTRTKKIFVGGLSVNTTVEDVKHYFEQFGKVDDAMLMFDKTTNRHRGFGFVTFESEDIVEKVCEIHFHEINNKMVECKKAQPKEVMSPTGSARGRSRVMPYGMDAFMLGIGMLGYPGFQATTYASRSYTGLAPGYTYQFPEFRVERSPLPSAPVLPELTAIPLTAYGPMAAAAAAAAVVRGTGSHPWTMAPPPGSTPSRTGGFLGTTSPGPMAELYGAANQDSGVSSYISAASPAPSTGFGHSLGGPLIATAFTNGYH
B1 gave a binding signal of 0.934 enrichment R.
Molecule B2 displayed a binding signal of 4.5 enrichment R.
The molecule B3 gave a binding signal of 2.18 enrichment R.
In the case of B4, the binding signal turned out to be 0.635 enrichment R.
B5 came in with a binding signal of 0.739 enrichment R.
To B6 belongs 0.693 enrichment R; to B7, 0.687 enrichment R; to B8, 1.74 enrichment R.
For the molecule B9, the binding signal amounted to 0.603 enrichment R.
In turn, B10 registered a binding signal of 0.304 enrichment R.
B11 returned a binding signal of 0.347 enrichment R.
To B12 belongs 0.556 enrichment R; to B13, 0.379 enrichment R; to B14, 0.374 enrichment R.
Molecule B15 showed a binding signal of 1.55 enrichment R.
B16 had a binding signal of 77.2 enrichment R.
The molecule B17 yielded a binding signal of 0.882 enrichment R.
In turn, B18 returned a binding signal of 0.419 enrichment R.
Turning to B19, the binding signal was 0.553 enrichment R.
B20 came in with a binding signal of 0.369 enrichment R.
The molecule B21 came in with a binding signal of 0.404 enrichment R.
B22 showed a binding signal of 0.624 enrichment R.
